We go through eight molecules from US20250019377A1 (JACOBIO PHARMACEUTICALS CO., LTD, priority 2021, published 2025).

Assay [1] concerns SW620 cells (K-Ras G12V). The assay is described as follows: 2D cell growth inhibition assay, SW620. Type of assay: cell-based. The following applies: 6 days, absolute IC50.
Assay [2] relates to p-ERK in TCC-PAN2 cells (K-Ras G12R). The assay can be described thus: Phospho-ERK1/2(THR202/TYR204) HTRF assay, TCC-PAN2. The assay is classed as cell-based. The following applies: 2 hours incubation.
For assay [3], the system named is AsPC-1 cells (K-Ras G12D). The assay can be described thus: 2D cell growth inhibition assay, AsPC-1. Type of assay: cell-based. As to conditions: AsPC-1, K-Ras G12D, 6 days, absolute IC50.
Assay [4] deals with K-Ras G12C (Homo sapiens, UniProt P01116, G12C). The assay is described as follows: SOS1 catalyzed nucleotide exchange assay (GDP form K-Ras), K-Ras G12C. The following applies: read-out: K-Ras G12C GDP Biochemical Activity (IC50).
Assay [5] relates to MKN-1 cells (K-Ras WT). The assay is described as follows: 3D cell growth inhibition assay, MKN-1. Type of assay: cell-based. As to conditions: Homo sapiens, 144 h, MKN-1, K-Ras WT, 6 days, absolute IC50.
For assay [6], the system named is p-ERK in MKN-1 cells (K-Ras WT amplification). The assay can be described thus: Phospho-ERK1/2(THR202/TYR204) HTRF assay, MKN-1. Type of assay: cell-based. As to conditions: Homo sapiens; MKN-1, K-Ras WT, 2 hours incubation. A general note: Time-resolved FRET reads energy transfer from a long-lived donor to a nearby acceptor.
Assay [7] relates to AGS cells (K-Ras G12D). The assay can be described thus: 2D cell growth inhibition assay, AGS. The assay is classed as cell-based. The following applies: 6 days, absolute IC50.
Assay [8] deals with TCC-PAN2 cells (K-Ras G12R). The assay can be described thus: 3D cell growth inhibition assay, TCC-PAN2. Type of assay: cell-based. The following applies: 144 h, 6 days, absolute IC50.
The subject of assay [9] is p-ERK in AGS cells (K-Ras G12D). The assay can be described thus: Phospho-ERK1/2(THR202/TYR204) HTRF assay, AGS. Type of assay: cell-based. The following applies: 2 hours incubation.
The subject of assay [10] is p-ERK in NCI-H358 cells (K-Ras G12C). The assay is described as follows: Phospho-ERK1/2(THR202/TYR204) HTRF assay, NCI-H358. The following applies: Homo sapiens, 2 hours incubation. Type of assay: cell-based.
Assay [11] deals with K-Ras G12A (Homo sapiens, UniProt P01116, G12A). The assay can be described thus: SOS1 catalyzed nucleotide exchange assay (GDP form K-Ras), K-Ras G12A. As to conditions: read-out: K-Ras G12A GDP Biochemical Activity (IC50).
In assay [12] the test system is p-ERK in SW620 cells (K-Ras G12V). The assay is described as follows: Phospho-ERK1/2(THR202/TYR204) HTRF assay, SW620. Type of assay: cell-based. The following applies: 2 hours incubation.
The test system of assay [13] is NCI-H460 cells (K-Ras Q61H). The assay can be described thus: 3D cell growth inhibition assay, NCI-H460. The following applies: Homo sapiens, 144 h, 6 days, absolute IC50. Type of assay: cell-based.
For assay [14], the system named is p-ERK in NCI-H460 cells (K-Ras Q61H). The assay can be described thus: Phospho-ERK1/2(THR202/TYR204) HTRF assay, NCI-H460. The assay is classed as cell-based. The following applies: Homo sapiens, 2 hours incubation.
The target of assay [15] is K-Ras G12V (Homo sapiens, UniProt P01116, G12V). The assay can be described thus: SOS1 catalyzed nucleotide exchange assay (GDP form K-Ras), K-Ras G12V. The following applies: read-out: K-Ras G12V GDP Biochemical Activity (IC50).
The subject of assay [16] is p-ERK in NCI-H747 cells (K-Ras G13D).
For assay [17], the target named is K-Ras WT (Homo sapiens, UniProt P01116). The assay is described as follows: SOS1 catalyzed nucleotide exchange assay (GDP form K-Ras), K-Ras WT. As to conditions: read-out: K-Ras WT GDP Biochemical Activity (IC50).
Assay [18] concerns the target K-Ras G12R (Homo sapiens, UniProt P01116, G12R). The assay can be described thus: SOS1 catalyzed nucleotide exchange assay (GDP form K-Ras), K-Ras G12R. The following applies: read-out: K-Ras G12R GDP Biochemical Activity (IC50).
The target of assay [19] is K-Ras Q61H (Homo sapiens, UniProt P01116, Q61H). The assay is described as follows: SOS1 catalyzed nucleotide exchange assay (GDP form K-Ras), K-Ras Q61H. As to conditions: read-out: K-Ras Q61H GDP Biochemical Activity (IC50).
The target in assay [20] is K-Ras G12D (Homo sapiens, UniProt P01116, G12D). The assay is described as follows: GTP-K-Ras and cRAF interaction assay (GppNp-K-Ras), K-Ras G12D. The following applies: read-out: K-Ras G12D GppNp Biochemical Activity (IC50).

Molecules are shown by their SMILES.

The term IC50 denotes the concentration needed to halve the response being measured. As to `C#Cc1c(F)ccc2cc(O)cc(-c3ncc4c(N5CCOC[C@H](F)C5)nc(OC[C@@]56CCCN5C[C@H](F)C6)nc4c3F)c12` (single isomer, unassigned) [Compound 12B], the IC50 in assay [1] (Homo sapiens, SW-620, 144 h) amounted to 3.11 nM; in assay [2] it was 67.8 nM; in assay [3] (Homo sapiens, ASPC1, 144 h), 37.7 nM; in assay [4] it was 0.345 nM; in [5] it was 9.09 nM; in assay [6], 1.76 nM. Also, the IC50 was found to be 2.17 nM in [7] (Homo sapiens, 144 h); 184 nM in assay [8]; 2 nM in assay [9] (Homo sapiens, 2 h); 1.19 nM in [10]; 0.387 nM in [11]; 2.08 nM in assay [12] (Homo sapiens, SW-620, 2 h). The IC50 in assay [13] worked out at 83 nM; in assay [14], 5.43 nM; in assay [15] it was 0.972 nM; in assay [16], 1.96 nM; in assay [17], 0.66 nM; in [18], 0.472 nM. Also, in assay [19], the IC50 was 0.706 nM.

Turning to `C#Cc1c(F)ccc2cc(O)cc(-c3ncc4c(N5CC6COC(C6)C5)nc(OC[C@@]56CCCN5C[C@H](F)C6)nc4c3F)c12` (single isomer, unassigned) [Compound 84B, 4-(4-((1S,5R)-6-oxa-3-azabicyclo[3.2.1]octan-3-yl)-8-fluoro-2-(((2R,7aS)-2-fluorotetra-hydro-1H-pyrrolizin-7a(5H)-yl)methoxy)pyrido[4,3-d]pyrimidin-7-yl)-5-ethynyl-6-fluoronaphthalen-2-ol or 4-(4-((1R,5S)-6-oxa-3-azabicyclo[3.2.1]octan-3-yl)-8-fluoro-2-(((2R,7aS)-2-fluorotetra-hydro-1H-pyrrolizin-7a(5H)-yl)methoxy)pyrido[4,3-d]pyrimidin-7-yl)-5-ethynyl-6-fluoronaphthalen-2-ol], the concentration for half-maximal inhibition (IC50) in assay [1] is 10.9 nM; in assay [2], 133 nM; in assay [3], 136 nM; in [4], 3.19 nM; in assay [5], 28.8 nM; in assay [6], 2.15 nM. Further, the IC50 in assay [7] was 10.2 nM; in assay [8] it was 999 nM; in [9] it was 2.76 nM; in assay [10] it was 3.78 nM; in [11] it was 1.78 nM; in assay [12], 5.74 nM. The IC50 is 461 nM in [13]; 21.8 nM in assay [14]; 0.983 nM in [15]; 4.68 nM in [16]; 2.1 nM in assay [17]; 0.63 nM in [18]. For the same molecule, the IC50 in assay [19] turned out to be 1.26 nM.

Consider `C#Cc1c(F)ccc2cc(O)cc(-c3ncc4c(N5CCOCC6CC65)nc(OC[C@@]56CCCN5C[C@H](F)C6)nc4c3F)c12` (stereo partly drawn) [Compound 33, 4-(4-(5-oxa-2-azabicyclo[5.1.0]octan-2-yl)-8-fluoro-2-(((2R,7aS)-2-fluorotetrahydro-1H-pyrrolizin-7a(5H)-yl)methoxy)pyrido[4,3-d]pyrimidin-7-yl)-5-ethynyl-6-fluoronaphthalen-2-ol], for which the IC50 came to 2.05 nM in [1] (Homo sapiens, SW-620, 144 h); 94 nM in [2]; 33.6 nM in assay [3] (Homo sapiens, ASPC1, 144 h); 1.2 nM in assay [4]; 3.11 nM in assay [5]; 1.44 nM in assay [6]. In addition, the IC50 in [7] (Homo sapiens, 144 h) is 4.19 nM; in assay [8] it was 117 nM; in assay [9] (Homo sapiens, 2 h) it was 1.36 nM; in assay [10], 1.73 nM; in assay [11] it was 0.685 nM; in assay [12] (Homo sapiens, SW-620, 2 h), 4 nM. The IC50 turned out to be 24.6 nM in [13]; 2.26 nM in assay [14]; 3.74 nM in [15]; 0.934 nM in assay [17]; 0.938 nM in assay [18]; 1.01 nM in assay [19].

Take `C#Cc1c(F)ccc2cc(O)cc(-c3ncc4c(N5CCCOCC5)nc(OCC5(CN6CCOCC6)CC5)nc4c3F)c12` [Compound 64, 5-ethynyl-6-fluoro-4-(8-fluoro-2-((1-(morpholinomethyl)cyclopropyl)methoxy)-4-(1,4-oxazepan-4-yl)pyrido[4,3-d]pyrimidin-7-yl)naphthalen-2-ol trifluoroacetic acid]: the IC50 in [1] (Homo sapiens, SW-620, 144 h) is 41.3 nM; in assay [3] (Homo sapiens, ASPC1, 144 h), 130 nM; in [4], 0.965 nM; in [7] (Homo sapiens, 144 h), 24.5 nM; in assay [9] (Homo sapiens, 2 h), 4.32 nM; in assay [12] (Homo sapiens, SW-620, 2 h), 10.9 nM. Also, the half-inhibitory concentration (IC50) is 2.16 nM in assay [15] and 1.83 nM in [17].

`C#Cc1c(F)ccc2cc(O)cc(-c3ncc4c(N5CCCOCC5)nc(OCC56CCCN5CC(SC)C6)nc4c3F)c12` (stereo not shown) [Compound 100, 5-ethynyl-6-fluoro-4-(8-fluoro-2-((2-(methyl-thio)tetrahydro-1H-pyrrolizin-7a(5H)-yl)methoxy)-4-(1,4-oxazepan-4-yl)pyrido [4,3-d]pyrimidin-7-yl)naphthalen-2-ol]: the IC50 in [1] (Homo sapiens, SW-620, 144 h) stood at 8.64 nM; in [2], 104 nM; in assay [3] (Homo sapiens, ASPC1, 144 h) it was 67.2 nM; in assay [4], 0.802 nM; in assay [5], 21.1 nM; in assay [6], 3.57 nM. Moreover, the IC50 in assay [7] (Homo sapiens, 144 h) came out at 5.4 nM; in assay [8], 720 nM; in assay [9] (Homo sapiens, 2 h), 2.63 nM; in assay [10], 2.04 nM; in assay [11] it was 1.05 nM; in assay [12] (Homo sapiens, SW-620, 2 h), 14.3 nM. Besides, the 50% inhibitory concentration (IC50) in assay [13] worked out at 139 nM; in assay [14], 17.7 nM; in assay [15] it was 1.2 nM; in assay [17], 1.23 nM; in assay [18], 1.41 nM; in assay [19] it was 0.844 nM.

Consider `C#Cc1c(F)ccc2cc(O)cc(-c3ccc4c(N5CCCOCC5)nc(OC[C@@]56CCCN5C[C@H](F)C6)nc4c3F)c12` [Compound 147, 5-ethynyl-6-fluoro-4-(8-fluoro-2-(((2R,7aS)-2-fluorotetrahydro-1H-pyrrolizin-7a(5H)-yl)methoxy)-4-(1,4-oxazepan-4-yl)quinazolin-7-yl)naphthalen-2-ol], for which the half-maximal inhibitory concentration (IC50) in assay [1] (Homo sapiens, SW-620, 144 h) came to 17.5 nM; in [3] (Homo sapiens, ASPC1, 144 h) it was 142 nM; in assay [20] it was 31.2 nM; in assay [7] (Homo sapiens, 144 h), 23.7 nM; in [9] (Homo sapiens, 2 h), 4.01 nM; in [12] (Homo sapiens, SW-620, 2 h), 11.2 nM. Also, the IC50 was found to be 1.68 nM in [15] and 1.87 nM in assay [17].

Consider `C#Cc1c(F)ccc2cc(O)cc(-c3c(F)cc4c(N5CCCOCC5)nc(OC[C@@]56CCCN5C[C@H](F)C6)nc4c3F)c12` [Compound 148, 4-(6,8-difluoro-2-(((2R,7aS)-2-fluorotetra-hydro-1H-pyrrolizin-7a(5H)-yl)methoxy)-4-(1,4-oxazepan-4-yl)quinazolin-7-yl)-5-ethynyl-6-fluoronaphthalen-2-ol], for which the concentration for half-maximal inhibition (IC50) in [1] (Homo sapiens, SW-620, 144 h) was found to be 13.9 nM; in assay [3] (Homo sapiens, ASPC1, 144 h) it was 72.5 nM; in assay [4], 0.709 nM; in assay [7] (Homo sapiens, 144 h), 9.03 nM; in assay [9] (Homo sapiens, 2 h), 4.57 nM; in assay [12] (Homo sapiens, SW-620, 2 h) it was 13 nM. Further, the results for the half-inhibitory concentration (IC50) in assay [15], in assay [16] and in assay [17] were 1.66 nM, 12.9 nM and 1.74 nM, respectively.

For the molecule `C#Cc1c(F)ccc2cc(O)cc(-c3ncc4c(N5CCCOC(C)C5)nc(OC[C@@]56CCCN5C[C@H](F)C6)nc4c3F)c12` (stereo partly drawn) [Compound 149, 5-ethynyl-6-fluoro-4-(8-fluoro-2-(((2R,7aS)-2-fluorotetrahydro-1H-pyrrolizin-7a(5H)-yl)methoxy)-4-(2-methyl-1,4-oxazepan-4-yl)pyrido[4,3-d]pyrimidin-7-yl) naphthalen-2-ol], the IC50 in assay [1] (Homo sapiens, SW-620, 144 h) worked out at 26.2 nM; in [3] (Homo sapiens, ASPC1, 144 h), 187 nM; in assay [20], 16 nM; in [7] (Homo sapiens, 144 h), 22.9 nM; in assay [9] (Homo sapiens, 2 h), 6.85 nM; in assay [12] (Homo sapiens, SW-620, 2 h), 14.9 nM. Moreover, the IC50 in assay [15] worked out at 2.71 nM.
